In a collection of fitness landscapes (doi:10.1016/j.celrep.2020.107928):
The full ranking holds about 81,000 sequences; the median of “one-hybrid fitness for binding parS DNA” is about -0.17, and the highest 2% start at about 0.51. The list shows a part of the results.

B1: Caulobacter ParB omega fusion; a variant is named by its letters at X, in order, B8GW30 (parent)
chain: MESVVVGEPGMSEGRRGLGRGLSALLGEVDAAPAQAPGEQLGGSREAPIEILQRNPDQPRRTFREEDLEDLSNSIREKGVLQPILVRPSPDTAGEYQIVAGERAWRAAQRAGLKTVPIMVRELDDLAVLEIGIIENVQRADLNVLEEALSYKVLMEKFERTQENIAQTIGKSXSHVANXMRLLXLPDEVQSYLVSGELTAXHARAIAAAADPVALAKQIIEGGLSVRETEALARKAPNLSAGKSKGGRPPRVKDTDTQALESDLSSVLGLDVSIDHRGSTGTLTITYATLEQLDDLCNRLTRGI

Variants of: B1
Assay: one-hybrid fitness for binding parS DNA (scaled: cognate 1, non-cognate 0); higher = stronger binding
Conditions: with parS DNA site
Outline: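 The reporter was HIS3, with the binding site 19 bp from the promoter, in E. coli USO used for bacterial one-hybrid selection of Caulobacter ParB libraries with four specificity codons randomised. Growth was on M9 lacking histidine, with 0.1 mM IPTG and 5 mM 3-AT, for 48 hours at 37°C. Illumina sequencing covered plasmids before and after selection; three replicate libraries were pooled and variants with under 10 reads dropped. A fitness score is the log change in variant-to-wild-type read ratio, rescaled to the cognate and non-cognate references.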

Variant | one-hybrid fitness for binding parS DNA
KGNY | ≤ 0.2
CYSS | ≤ 0.2
TGRY | ≤ 0.2
YWDM | ≤ 0.2
CRRF | ≤ 0.2
LWLT | ≤ 0.2
GTDA | ≤ 0.2
IYKG | ≤ 0.2
GFVS | ≤ 0.2
INRS | ≤ 0.2
WLKC | ≤ 0.2
DILY | ≤ 0.2
VARW | ≤ 0.2
RDKT | ≤ 0.2
APLP | ≤ 0.2
RNMF | ≤ 0.2
SVHC | ≤ 0.2
NTHW | ≤ 0.2
CQGT | ≤ 0.2
QTTT | ≤ 0.2
QAAT | ≤ 0.2

Variant | one-hybrid fitness for binding parS DNA
QERE | ≤ 0.2
FGYS | ≤ 0.2
QISD | ≤ 0.2
DDPF | ≤ 0.2
AWNV | ≤ 0.2
QRTT | ≤ 0.2
QDTI | ≤ 0.2
MIAR | ≤ 0.2
HSEA | ≤ 0.2
PASV | ≤ 0.2
AGPE | ≤ 0.2
NKHI | ≤ 0.2
LSRS | ≤ 0.2
LLTW | ≤ 0.2
YYSC | ≤ 0.2
SKYS | ≤ 0.2
RWIF | ≤ 0.2
VCCR | ≤ 0.2
VTIC | ≤ 0.2
GGSV | ≤ 0.2
HLCG | ≤ 0.2

Variant | one-hybrid fitness for binding parS DNA
DGRW | ≤ 0.2
DVVG | ≤ 0.2
LMAR | ≤ 0.2
PNPP | ≤ 0.2
VGPE | ≤ 0.2
PPPP | ≤ 0.2
KAPL | ≤ 0.2
NGRV | ≤ 0.2
TAWR | ≤ 0.2
VAIV | ≤ 0.2
WRIL | ≤ 0.2
KTKH | ≤ 0.2
SGWC | ≤ 0.2
TPCC | ≤ 0.2
KYMV | ≤ 0.2
FHVK | ≤ 0.2
DSNI | ≤ 0.2
YYTS | ≤ 0.2
HTGC | ≤ 0.2
VERS | ≤ 0.2
RTSS | 0.938

Variant | one-hybrid fitness for binding parS DNA
LPCV | ≤ 0.2
CRET | ≤ 0.2
SEEM | ≤ 0.2
CSNK | ≤ 0.2
QKNN | ≤ 0.2
YALK | ≤ 0.2
LTVK | ≤ 0.2
RPLD | ≤ 0.2
CLKM | ≤ 0.2
GSKK | ≤ 0.2
PRSP | ≤ 0.2
VFNS | ≤ 0.2
VMTY | ≤ 0.2
APFI | ≤ 0.2
SWLC | ≤ 0.2
KNNL | ≤ 0.2
PALE | ≤ 0.2
TLET | ≤ 0.2
EELY | ≤ 0.2
EKAS | ≤ 0.2
PKSE | ≤ 0.2
